According to PMC9388138, “Engineered IL13 variants direct specificity of IL13Rα2-targeted CAR T cell therapy” (Proceedings of the National Academy of Sciences of the …, 2022):

Legend:
[1] = target: T1, Biotinylated IL13Rα2 ectodomain (human, UniProt Q14627 27-343, biotin on the biotin acceptor peptide (coexpressed with BirA ligase)); experiment: SPR; Biacore T100, SA chip; biotinylated IL13Rα1/IL13Rα2 captured at 50 to 100 RU; threefold serial dilutions of IL13 agonists in HBS-P with 0.1% BSA, 30 µL/min; 1:1 Langmuir model; conditions: both partners purified
T1 construct: interleukin-13 receptor subunit alpha-2, ectodomain; also called recombinant IL13Rα2; source: baculovirus (pAcGP67-A), coexpressed with BirA ligase and excess biotin
T1 sequence (looked up): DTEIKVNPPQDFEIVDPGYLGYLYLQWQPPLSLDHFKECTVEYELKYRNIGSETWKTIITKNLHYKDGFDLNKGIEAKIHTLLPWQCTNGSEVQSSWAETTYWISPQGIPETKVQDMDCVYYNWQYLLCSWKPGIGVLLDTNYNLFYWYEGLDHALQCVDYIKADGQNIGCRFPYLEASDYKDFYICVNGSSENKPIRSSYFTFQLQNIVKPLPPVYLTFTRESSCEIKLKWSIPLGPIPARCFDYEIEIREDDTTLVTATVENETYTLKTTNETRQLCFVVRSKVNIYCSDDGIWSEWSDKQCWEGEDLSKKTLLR

[2] = target: T2, Biotinylated IL13Rα1 ectodomain (human, UniProt P78552 22-343, biotin on the biotin acceptor peptide (coexpressed with BirA ligase)); experiment: as above; conditions: both partners purified
T2 construct: interleukin-13 receptor subunit alpha-1, ectodomain; also called recombinant IL13Rα1; source: baculovirus (pAcGP67-A), coexpressed with BirA ligase and excess biotin
T2 sequence (looked up): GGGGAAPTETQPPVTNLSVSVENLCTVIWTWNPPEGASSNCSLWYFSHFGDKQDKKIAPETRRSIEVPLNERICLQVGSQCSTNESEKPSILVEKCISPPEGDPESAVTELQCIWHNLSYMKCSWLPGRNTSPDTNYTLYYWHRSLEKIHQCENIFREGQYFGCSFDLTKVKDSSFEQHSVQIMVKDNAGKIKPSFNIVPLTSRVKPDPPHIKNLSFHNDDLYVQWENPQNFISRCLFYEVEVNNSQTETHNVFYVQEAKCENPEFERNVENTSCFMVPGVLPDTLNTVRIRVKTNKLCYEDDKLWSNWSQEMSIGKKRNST

- Kd [1]: 0.001 nM
- koff [1]: 8.4e-05 s⁻¹
- kon [1]: 5e+07 M⁻¹ s⁻¹
- Kd [2]: 4.38 nM
- koff [2]: 0.022 s⁻¹
- kon [2]: 5.21e+06 M⁻¹ s⁻¹
B1: Human IL13 wild type, soluble recombinant (ligand)
chain: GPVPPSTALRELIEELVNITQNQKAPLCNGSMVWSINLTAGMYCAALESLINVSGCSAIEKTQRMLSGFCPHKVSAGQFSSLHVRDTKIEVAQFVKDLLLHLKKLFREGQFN
